The other results are listed elsewhere or left out.
Tests used:
Test in all cases: glycan array binding signal (z-score within array); higher = stronger binding
Conditions in all cases: glycan notation: IUPAC condensed, linker removed
Gal(a1-3)Gal(b1-4)GlcNAc = molecular target: Gal(a1-3)Gal(b1-4)GlcNAc
In short: (§1)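 From the Consortium for Functional Glycomics database, 3228 arrays were curated, keeping only those whose protein sequence was available. Binding is given as a within-array Z-score averaged across arrays sharing a protein sequence and across linkers. Negative Z-scores can be read as non-binding.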

[1] = molecular target: Gal(a1-3)Gal(b1-4)GlcNAc(b1-2)Man
In short: as §1

[2] = molecular target: Gal(a1-3)Gal(b1-4)GlcNAc(b1-2)Man(a1-3)[Gal(a1-3)Gal(b1-4)GlcNAc(b1-2)Man(a1-6)]Man(b1-4)GlcNAc(b1-4)GlcNAc
In short: as §1

[3] = molecular target: Gal(a1-3)Gal(b1-4)GlcNAc(b1-3)GalNAc
In short: as §1

[4] = molecular target: Gal(a1-3)Gal(b1-4)GlcNAc(b1-6)GalNAc
In short: as §1

[5] = molecular target: Gal(a1-3)Gal(b1-4)[Fuc(a1-3)]GlcNAc
In short: as §1

[6] = molecular target: Gal(a1-3)Gal(b1-4)[Fuc(a1-3)]GlcNAc(b1-2)Man(a1-3)[Gal(a1-3)Gal(b1-4)[Fuc(a1-3)]GlcNAc(b1-2)Man(a1-6)]Man(b1-4)GlcNAc(b1-4)GlcNAc
In short: as §1

Gal(a1-3)GalNAc = molecular target: Gal(a1-3)GalNAc
In short: as §1

[7] = molecular target: Gal(a1-3)[Gal(a1-4)]Gal(b1-4)GlcNAc
In short: as §1

[8] = molecular target: Gal(a1-4)Gal(b1-3)GlcNAc(b1-2)Man(a1-3)[Gal(a1-4)Gal(b1-3)GlcNAc(b1-2)Man(a1-6)]Man(b1-4)GlcNAc(b1-4)GlcNAc
In short: as §1

Gal(a1-4)Gal(b1-4)Glc = molecular target: Gal(a1-4)Gal(b1-4)Glc
In short: as §1

Gal(a1-4)Gal(b1-4)GlcNAc = molecular target: Gal(a1-4)Gal(b1-4)GlcNAc
In short: as §1

[9] = molecular target: Gal(a1-4)Gal(b1-4)GlcNAc(b1-2)Man(a1-3)[Gal(a1-4)Gal(b1-4)GlcNAc(b1-2)Man(a1-6)]Man(b1-4)GlcNAc(b1-4)GlcNAc
In short: as §1

[10] = molecular target: Gal(a1-4)Gal(b1-4)GlcNAc(b1-3)Gal(b1-4)Glc
In short: as §1

Gal(a1-4)GlcNAc = molecular target: Gal(a1-4)GlcNAc
In short: as §1

Gal(a1-6)Glc = molecular target: Gal(a1-6)Glc
In short: as §1

Gal(b1-2)Gal = molecular target: Gal(b1-2)Gal
In short: as §1

Gal(b1-3)Gal = molecular target: Gal(b1-3)Gal
In short: as §1

Gal(b1-3)Gal(b1-4)GlcNAc = molecular target: Gal(b1-3)Gal(b1-4)GlcNAc
In short: as §1

Gal(b1-3)GalNAc = molecular target: Gal(b1-3)GalNAc
In short: as §1

[11] = molecular target: Gal(b1-3)GalNAc(a1-3)[Fuc(a1-2)]Gal(b1-4)Glc
In short: as §1

[12] = molecular target: Gal(b1-3)GalNAc(a1-3)[Fuc(a1-2)]Gal(b1-4)GlcNAc
In short: as §1

Gal(b1-3)GalNAc(b1-3)Gal = molecular target: Gal(b1-3)GalNAc(b1-3)Gal
In short: as §1

[13] = molecular target: Gal(b1-3)GalNAc(b1-3)Gal(a1-4)Gal(b1-4)Glc
In short: as §1

[14] = molecular target: Gal(b1-3)GalNAc(b1-4)Gal(b1-4)Glc
In short: as §1

[15] = molecular target: Gal(b1-3)GalNAc(b1-4)[Neu5Ac(a2-3)]Gal(b1-4)Glc
In short: as §1

Gal(b1-3)GlcNAc = molecular target: Gal(b1-3)GlcNAc
In short: as §1

[16] = molecular target: Gal(b1-3)GlcNAc(a1-3)Gal(b1-4)GlcNAc
In short: as §1

[17] = molecular target: Gal(b1-3)GlcNAc(a1-6)Gal(b1-4)GlcNAc
In short: as §1

Gal(b1-3)GlcNAc(b1-2)Man = molecular target: Gal(b1-3)GlcNAc(b1-2)Man
In short: as §1

[18] = molecular target: Gal(b1-3)GlcNAc(b1-2)Man(a1-3)[Gal(b1-3)GlcNAc(b1-2)Man(a1-6)]Man(b1-4)GlcNAc(b1-4)GlcNAc
In short: as §1

[19] = molecular target: Gal(b1-3)GlcNAc(b1-2)Man(a1-3)[Gal(b1-3)GlcNAc(b1-2)Man(a1-6)]Man(b1-4)GlcNAc(b1-4)[Fuc(a1-6)]GlcNAc
In short: as §1

[20] = molecular target: Gal(b1-3)GlcNAc(b1-2)Man(a1-3)[GlcNAc(b1-4)][Gal(b1-3)GlcNAc(b1-2)Man(a1-6)]Man(b1-4)GlcNAc(b1-4)GlcNAc
In short: as §1

[21] = molecular target: Gal(b1-3)GlcNAc(b1-2)[Gal(b1-3)GlcNAc(b1-6)]Man(a1-6)[Gal(b1-3)GlcNAc(b1-2)Man(a1-3)]Man(b1-4)GlcNAc(b1-4)GlcNAc
In short: as §1

[22] = molecular target: Gal(b1-3)GlcNAc(b1-3)Gal(b1-3)GlcNAc
In short: as §1

[23] = molecular target: Gal(b1-3)GlcNAc(b1-3)Gal(b1-4)Glc
In short: as §1

[24] = molecular target: Gal(b1-3)GlcNAc(b1-3)Gal(b1-4)GlcNAc
In short: as §1

B1: DC-ASGPR-short (Homo sapiens) (protein)
chain: MTRTYENFQYLENKVKVQGFKNGPLPLQSLLQRLRSGPCHLLLSLGLGLLLLVIICVVGFQNSKFQRDLVTLRTDFSNFTSNTVAEIQALTSQGSSLEETIASLKAEVEGFKQERQAVHSEMLLRVQQLVQDLKKLTCQVATLNNNASTEGTCCPVNWVEHQDSCYWFSHSGMSWAEAEKYCQLKNAHLVVINSREEQNFVQKYLGSAYTWMGLSDPEGAWKWVDGTDYATGFQNWKPGQPDDWQGHGLGGGEDCAHFHPDGRWNDDVCQRPYHWVCEAGLGQTSQESH
In the case of B1, the “glycan array binding signal (z-score)” value (Gal(a1-3)Gal(b1-4)GlcNAc) is reported as -0.274, the “glycan array binding signal (z-score)” value [1] is reported as -0.341 and the “glycan array binding signal (z-score)” value [2] is reported as -0.281. The “glycan array binding signal (z-score)” value [3] was -0.259, the “glycan array binding signal (z-score)” value [4] was 1.44 and the “glycan array binding signal (z-score)” value [5] was -0.27. The “glycan array binding signal (z-score)” value [6] was -0.258, the “glycan array binding signal (z-score)” value (Gal(a1-3)GalNAc) was -0.136 and the “glycan array binding signal (z-score)” value [7] was -0.269. For the same binder, the “glycan array binding signal (z-score)” value [8] was -0.254, the “glycan array binding signal (z-score)” value (Gal(a1-4)Gal(b1-4)Glc) was -0.18 and the “glycan array binding signal (z-score)” value (Gal(a1-4)Gal(b1-4)GlcNAc) was -0.254. For the same binder, the “glycan array binding signal (z-score)” value [9] was -0.275, the “glycan array binding signal (z-score)” value [10] was -0.283 and the “glycan array binding signal (z-score)” value (Gal(a1-4)GlcNAc) was -0.155. For the same binder, the “glycan array binding signal (z-score)” value (Gal(a1-6)Glc) was -0.009, the “glycan array binding signal (z-score)” value (Gal(b1-2)Gal) was -0.296 and the “glycan array binding signal (z-score)” value (Gal(b1-3)Gal) was -0.274. For the same binder, the “glycan array binding signal (z-score)” value (Gal(b1-3)Gal(b1-4)GlcNAc) was -0.277, the “glycan array binding signal (z-score)” value (Gal(b1-3)GalNAc) was -0.272 and the “glycan array binding signal (z-score)” value [11] was -0.27. For the same binder, the “glycan array binding signal (z-score)” value [12] was -0.273, the “glycan array binding signal (z-score)” value (Gal(b1-3)GalNAc(b1-3)Gal) was -0.217 and the “glycan array binding signal (z-score)” value [13] was 1.72. The “glycan array binding signal (z-score)” value [14] was -0.213, the “glycan array binding signal (z-score)” value [15] was 1.87 and the “glycan array binding signal (z-score)” value (Gal(b1-3)GlcNAc) was 0.207. For the same binder, the “glycan array binding signal (z-score)” value [16] was -0.269, the “glycan array binding signal (z-score)” value [17] was -0.246 and the “glycan array binding signal (z-score)” value (Gal(b1-3)GlcNAc(b1-2)Man) was -0.264. For the same binder, the “glycan array binding signal (z-score)” value [18] was -0.273, the “glycan array binding signal (z-score)” value [19] was -0.279 and the “glycan array binding signal (z-score)” value [20] was -0.261. The “glycan array binding signal (z-score)” value [21] was -0.29, the “glycan array binding signal (z-score)” value [22] was -0.286 and the “glycan array binding signal (z-score)” value [23] was -0.286. For the same binder, the “glycan array binding signal (z-score)” value [24] was -0.285.
